# According to PubChem BioAssay AID924 (National Center for Advancing Translational Sciences (NCATS), 2007):
# Screen size: about 130,000 compounds; about 1,200 (0.92%) were called active. This list was built around the results that the source calls inconclusive (neither active nor inactive); the mix of calls is not that of the screen. Calls follow the shape of the dose curve; as a rule, active = well fitted cell-killing curve with a large enough effect; inconclusive = small, poorly fitted or top-dose-only effect; inactive = no such curve, though single readings can be large or run the other way. Where the call is inconclusive, the potency comes from a doubtful curve fit.
# Test: qHTS Screen for Compounds that Selectively Target Cancer Cells with p53 Mutations: Cytotoxicity of p53ts Cells at the Permissive Temperature; also: nearly all actives have a fitted effect of over 55% in size;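 as to activity change, negative = cytotoxicity: 0% = DMSO and -100% = full killing by reference compound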
# Conditions: H1299-p53A138V at 32C, ATP luminescence viability, 24 h; activity change, negative = cytotoxicity: at 46.1 µM (top of the series)
# Method in brief: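 H1299-p53 A138V cells (temperature-sensitive p53) exposed 24 h to up to 46 uM compound at 32C, where p53 is wild-type in conformation. Viability read as ATP luminescence and normalised to DMSO and 100 uM tamoxifen. AC50 fitted with the Hill equation.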
# Potency is read from the fitted curve at half-maximal effect; tags tell the direction and shape of the fitted curve.
SMILES,"activity change, negative = cytotoxicity",Potency
Nc1c(S(=O)(=O)c2cccs2)c2nc3ccccc3nc2n1Cc1ccc2c(c1)OCO2,inactive: 11.6%,
CCSC(N)=Nc1ccc(C(F)(F)F)cc1,,"inconclusive: 12.6 µM [cytotoxic, partial curve]"
Cc1nn(Cc2ccc(Cl)cc2)c(C)c1NC(=O)c1cc(-c2ccc3c(c2)OCO3)on1,,"inconclusive: 20 µM [cytotoxic, single point]"
CCOc1c(Cl)cc(C(=O)N(Cc2ccc(N(C)C)cc2)Cc2ccco2)cc1Cl,inactive: 7.7%,
O=C(Cn1c(=O)nc(-c2ccccc2F)c2cc(Cl)ccc21)NCCCc1ccccc1,,"inconclusive: 31.6 µM [cytotoxic, single point]"
CCc1ccc(OCC(=O)Nc2ncn[nH]2)c(Br)c1,,active: 1.58 µM
O=C(Nc1nc(-c2ccccc2)cs1)c1cccs1,,"inconclusive: 12.6 µM [cytotoxic, partial curve]"
COC(=O)[C@H](C)NC(=O)[C@@H](C)CO,inactive: 0.542% [at 9.22 µM],
Cc1ncn(-c2ccccc2O)c1C,inactive: 1.12% [at 9.22 µM],
O=c1c2cc3c(cc2nc2sc(Nc4ccccc4)nn12)OCO3,,active: 12.6 µM
COc1cccc([C@@H]2Oc3ccc(OC)cc3/C(=N/O[C@@H](C)CN3CCCc4nc(C)c(C)cc43)[C@@H]2O)c1,inactive: -6.83% [at 9.22 µM],
CCOC(=O)C1=C(C)OC(N)=C(C#N)C1c1cc2c(cc1Br)OCO2 (stereo not drawn),inactive: -8.38%,
CCN(CC)c1ccc(CNCCCSc2nnnn2C)cc1,,"inconclusive: 35.5 µM [cytotoxic, single point]"
Cn1c(NC(=O)c2cc(-c3ccc4c(c3)OCO4)nc3ccccc23)cc(=O)n(C)c1=O,,active: 15.8 µM
O=C(Nc1ccc(Cl)cc1)C1CCC(CNS(=O)(=O)c2ccc(Br)s2)CC1 (stereo not drawn),,"inconclusive: 11.2 µM [cytotoxic, single point]"
Cc1ccc(C2=N/C(=C/N3CCOCC3)C(=O)O2)cc1,inactive: -18.3%,
O=C(C1CCC(Cn2c(=O)c3sccc3n(Cc3ccccc3)c2=O)CC1)N1CCOCC1 (stereo not drawn),inactive: -2.13%,
Cc1ccc2c(=O)cc(C(=O)NCc3ccccc3)oc2c1,inactive: -4%,
Cc1ccc(-n2nc3c(n2)/C(=N/O)CC/C3=N\O)cc1,,"inconclusive: 10 µM [cytotoxic, partial curve]"
O=C(Nc1cccc(Cl)c1)N1CC2CCCN2c2ccccc21 (stereo not drawn),inactive: -0.0147%,
CCOC(=O)CSc1nc2ccccc2c(=O)n1CC1CCC(C(=O)NCc2ccco2)CC1 (stereo not drawn),,"inconclusive: 25.1 µM [cytotoxic, single point]"
O=C(Nc1nc2n(n1)C(c1ccc(F)cc1)C=C(c1ccc(Cl)cc1)N2)c1ccc([N+](=O)[O-])cc1 (stereo not drawn),,"inconclusive: 10 µM [cytotoxic, partial curve]"
CCCCCS(=O)(=O)CCCCCCCCCCn1c(-c2ccc(O)cc2)c(C)c2cc(O)ccc21,,"inconclusive: 31.6 µM [cytotoxic, single point]"
COC(=O)c1ccc(CCc2cc(O)ccc2O)cc1,,"inconclusive: 6.31 µM [cytotoxic, single point]"

SMILES,"activity change, negative = cytotoxicity",Potency
COc1ccc(-c2csc(NC(=O)c3ccco3)n2)cc1,,"inconclusive: 25.1 µM [cytotoxic, partial curve, poor fit]"
O=C(Nc1ccc2ccccc2c1)c1cnccn1,,"inconclusive: 15.8 µM [cytotoxic, partial curve]"
O=C(NCCc1ccc(Cl)cc1)c1ccc2nc(CCc3ccccc3)oc2c1,inactive: 0.682%,
CC(C)Cn1c(-c2ccccc2Cl)nc2ccccc21,inactive: -5.59%,
COCCCNC(=O)CCCn1c(=O)c2ccccc2n(CC(=O)Nc2ccc(C)cc2Cl)c1=O,inactive: 11.1%,
Cc1cc(N2CCN(C(=O)c3ccco3)CC2)n2nc(-c3cccc(F)c3)cc2n1,,"inconclusive: 31.6 µM [cytotoxic, single point]"
CCSc1nnc(NC(=O)c2ccccc2)s1,,"inconclusive: 25.1 µM [cytotoxic, single point]"
O=C(CCCn1c(=O)[nH]c2ccc(Br)cc2c1=O)N1CCN(c2cccc(Cl)c2)CC1,,"inconclusive: 31.6 µM [cytotoxic, single point]"
O=C(OCc1nnc(-c2ccccc2)o1)c1ccco1,inactive: 3.62%,
CCCOC(=O)c1cccc(NC(=O)CSc2nnc3cc(C)c4ccccc4n23)c1,inactive: 2.23%,
N#CC(=NCCO)C1=C(O)c2ccccc2C1=O,,"inconclusive: 5.01 µM [cytotoxic, single point]"
O=C(Nc1ccc2c(c1)OCO2)c1cnn2cccnc12,,"inconclusive: 20 µM [cytotoxic, single point]"
CCc1cccc(NC(=O)C2CCCN2S(=O)(=O)c2ccc3nc(-c4ccccc4)[nH]c3c2)c1 (stereo not drawn),inactive: 16.8%,
Cc1ccc(CCNC(=O)C2CCCN(c3nnc(C)c4c(C)n(-c5ccccc5)nc34)C2)cc1 (stereo not drawn),inactive: -8.12%,
CCN(CC)CCCNC(=O)c1ccc(Cn2c(SCc3ccccc3)nc3cccnc32)cc1,,"inconclusive: 14.1 µM [cytotoxic, partial curve]"
COc1c(C)cccc1C(=O)Nc1ccc(-c2nc3ccccc3s2)c(Cl)c1,,"inconclusive: 20 µM [cytotoxic, single point]"
CCOc1cc(C(=O)Nc2ccc(-c3cn4cccnc4n3)cc2)cc(OCC)c1OCC,,"inconclusive: 15.8 µM [cytotoxic, single point]"
CNc1nc2sc3c(c2c(=O)n1C)CC(C)(C)SC3,inactive: 14.4%,
CCCN(CCC)c1ccc(C2N=C(N)Nc3nc4ccccc4n32)cc1 (stereo not drawn),,"inconclusive: 31.6 µM [cytotoxic, single point]"
CC1CCC2C(=O)N3C(CCC(C)[C@@H]3c3ccc(Br)cc3)C(=O)N2C1c1ccc(Br)cc1 (stereo partly drawn),inactive: -4.94% [at 9.22 µM],
COc1ccc(NC(=O)c2cc3c(s2)-c2c(C)cccc2OC3)cc1Cl,inactive: -11.4%,
Cc1ccccc1OCCSc1nc2ccc(NC(=O)c3cccc(F)c3)cc2s1,,"inconclusive: 35.5 µM [cytotoxic, single point]"
Nn1c(Nc2ccccc2)nc2sc3c(c2c1=O)CCC3,inactive: -21.9%,
Oc1c(C(c2ccccn2)N2CCOCC2)ccc2cccnc12 (stereo not drawn),,"inconclusive: 31.6 µM [cytotoxic, single point]"
